Reference: paper PMC4336329 (PLoS ONE, 2015)
Hit rate of the full screen: of about 310,000 compounds, about 14,000 (4.5%) showed an effect of 50% or more. Effects have a minus sign here. Some of the results follow.

These compounds were tested against human ether-à-go-go-related gene (hERG) potassium channel (human, UniProt Q12809) (assay: primary screen, population patch clamp on CHO cells stably expressing hERG).
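Note: peak tail current of the secondary pulse compared with the same well before compound.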

Sequence of human ether-à-go-go-related gene (hERG) potassium channel (Q12809 whole entry, looked up): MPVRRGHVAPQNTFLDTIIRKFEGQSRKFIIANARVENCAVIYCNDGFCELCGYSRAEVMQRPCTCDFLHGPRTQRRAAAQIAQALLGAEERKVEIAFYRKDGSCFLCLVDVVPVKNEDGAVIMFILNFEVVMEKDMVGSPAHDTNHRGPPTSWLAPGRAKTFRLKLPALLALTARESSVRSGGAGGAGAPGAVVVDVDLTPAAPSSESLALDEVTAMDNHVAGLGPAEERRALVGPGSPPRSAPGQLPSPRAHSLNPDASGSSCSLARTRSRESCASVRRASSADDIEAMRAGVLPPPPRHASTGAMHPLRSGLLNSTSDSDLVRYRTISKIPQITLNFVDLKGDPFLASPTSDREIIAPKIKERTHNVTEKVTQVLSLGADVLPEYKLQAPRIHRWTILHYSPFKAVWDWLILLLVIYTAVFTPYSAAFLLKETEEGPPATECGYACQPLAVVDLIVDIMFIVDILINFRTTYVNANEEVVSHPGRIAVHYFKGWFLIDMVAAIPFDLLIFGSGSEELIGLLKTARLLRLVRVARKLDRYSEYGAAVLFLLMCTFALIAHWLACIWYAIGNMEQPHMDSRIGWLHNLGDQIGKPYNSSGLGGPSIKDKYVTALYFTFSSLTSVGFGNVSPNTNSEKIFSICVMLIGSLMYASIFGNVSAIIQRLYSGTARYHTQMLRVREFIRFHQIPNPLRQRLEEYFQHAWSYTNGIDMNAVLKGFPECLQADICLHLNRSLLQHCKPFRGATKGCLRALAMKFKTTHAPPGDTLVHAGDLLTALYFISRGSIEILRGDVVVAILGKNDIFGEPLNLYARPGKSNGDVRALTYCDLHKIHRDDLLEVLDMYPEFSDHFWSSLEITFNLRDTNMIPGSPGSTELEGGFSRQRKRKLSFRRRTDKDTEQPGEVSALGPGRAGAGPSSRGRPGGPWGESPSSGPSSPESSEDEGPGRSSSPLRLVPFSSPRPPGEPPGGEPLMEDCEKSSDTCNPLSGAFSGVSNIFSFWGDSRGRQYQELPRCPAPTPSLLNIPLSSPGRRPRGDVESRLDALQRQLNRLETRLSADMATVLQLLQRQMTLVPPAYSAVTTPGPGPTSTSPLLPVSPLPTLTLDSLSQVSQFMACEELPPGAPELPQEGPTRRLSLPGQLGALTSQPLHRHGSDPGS

Structure (SMILES) | hERG current change (%, negative = inhibition) at 10uM
O=C(Nc1ccc(Br)cc1)c1cnc[nH]1 | 12.7%
Cc1ccc(NC(=O)CCn2c(=S)oc3ccccc32)cc1F | 27.5%
COc1cccc(S(=O)(=O)NC2CCN(C#N)C2)c1 (stereo not drawn) | 9.23%
COc1ccc(NC(=O)N(CCC(C)C)C(C)c2ccccn2)c(OC)c1 (stereo not drawn) | -10%
C=CC[C@H]1CC(Cc2ccccc2)=C[C@H](CC=C)N1.Cl | -35%
O=C(Nc1ncc(Cc2cccc(C(F)(F)F)c2)s1)C1CCCO1 (stereo not drawn) | -4.12%
O=C(CCC(=O)N(Cc1ccco1)C(C(=O)NC1CCCC1)c1ccncc1)Nc1cccnc1 (stereo not drawn) | 1.77%
CCc1nnc(NC(=O)C2CCCO2)s1 (stereo not drawn) | 22.1%
CCc1cc(Cn2nc(C(=O)O)cc2-c2ccccc2)on1 | -14.8%
C#CCOCCOCCOCCNc1nc(N2CCN(C(=O)[C@H]([C@@H](C)O)n3cc(CCCC[NH3+])nn3)CC2)nc(N2CCN(C(=O)[C@H]([C@@H](C)CC)n3cc(CCC[NH+]=C(N)N)nn3)CC2)n1.[Cl-] | 11.5%
CN(C)C(CNC(=O)c1ccc2c(c1)S(=O)(=O)c1ccccc1C2=O)c1ccco1 (stereo not drawn) | -12.7%
O=C(CCN1C(=O)C2C3CCC(C3)C2C1=O)Nc1ccccc1C(F)(F)F (stereo not drawn) | 10.4%
COc1ccc(Nc2ccc(S(=O)(=O)N3CCCCC3)cc2[N+](=O)[O-])cc1OC | -8.72%
COc1cccc(C2C3=C(CCCC3=O)Nc3[nH]n(-c4ccccc4)c(=O)c32)c1 (stereo not drawn) | 20%
Cc1ccccc1NC(=O)c1ccc(C)c(S(=O)(=O)Nc2ccccn2)c1 | 13.1%
Cc1ccc(OCc2ccc(C#N)cc2)c(C(=O)c2cc(C#N)c(=O)n(C3CC3)c2)c1 | 5.46%
CC(C)CN(CCC(=O)O)CC(C)C | 4.45%
CN1CC(C(=O)c2ccc(Cl)cc2)C(c2ccc(N(C)C)cc2)C1 (stereo not drawn) | -57.9%
CCCC(=O)Nc1ccc(Cl)c(NC(=S)NC(=O)c2ccco2)c1 | 4.78%
Cc1nn(CC(=O)NCCCN2CCCCC2)c(=O)c2cc(-c3ccccc3)nn12 | -49.4%
COc1cccc(Oc2cncnc2-c2ccc(OC)cc2O)c1 | -10.5%

Structure (SMILES) | hERG current change (%, negative = inhibition) at 10uM
CCOc1ccc(CN(CC)C(=O)Cc2c[nH]c3ccccc23)cc1OC | -7.96%
C=CCN1C(=O)c2ccc(C(=O)N(C)CC(=O)Nc3ccccc3Br)cc2C1=O | 4.17%
CC(=O)Oc1ccc(-c2csc(Nc3cccnc3)n2)cc1 | -9.85%
CN(C)S(=O)(=O)c1ccc2c(c1)nc(CCC(=O)NCC1CCCCC1)n2C | -14.6%
CCC1(CC)NC(=S)N(Nc2ccccc2)C1=O | 9.67%
Cc1ccc(S(=O)(=O)Nc2cc(=O)[nH]c(SCC(=O)Nc3cccc(C)c3)n2)cc1 | 1.89%
Cc1ccc(NC(=O)c2cc3ccccc3cc2O)cc1 | 10.6%
O=C(CCn1c(=S)oc2ccccc21)NC1CCCCCC1 | 7.94%
CCN(C(=O)CSc1nnnn1-c1ccccc1OC)C1CCS(=O)(=O)C1 (stereo not drawn) | 21.2%
COc1ccc(N2CCN(C(=O)CS(=O)Cc3nc(-c4ccc(OC)c(OC)c4)oc3C)CC2)cc1 (stereo not drawn) | 2.58%
O=C(O)CCCCNCc1ccccc1 | 12.4%
Cc1nc2cc(OCc3cc(C(=O)NC(C)c4cnn(C)c4)no3)ccc2s1 (stereo not drawn) | 9.18%
O=C(CSc1nnc(-c2ccccn2)o1)Nc1ccccc1C(F)(F)F | 20.7%
Cc1sc2nc(SCC(=O)NCc3ccco3)n(CCc3ccccc3)c(=O)c2c1C | 9.67%
CCOc1cc(/C=C2\C(=N)N3N=C(C)SC3=NC2=O)ccc1OCCOc1cccc(OC)c1 | 3.92%
[N-]=[N+]=NC1CC(CO)OC1n1ccc(=O)[nH]c1=O (stereo not drawn) | 2.45%
COc1cccc(NC(=O)CCC2CCN(C(=O)c3cccc(NC(C)=O)c3)CC2)c1 | -28.4%
COc1ccc(-n2c(=O)[nH]cc(C(=O)N3CCCc4ccccc43)c2=O)cc1 | -1.98%
O=C(Nc1ccccc1)c1ccc(=O)[nH]n1 | 17.3%
COc1ccc(NC(=O)CN(C)C(=O)Cc2ccc(-c3ccccc3)cc2)cc1 | 6.88%
C=CCOC(=O)C1=C(C)NC(=O)NC1c1ccc(OC(=O)c2ccco2)c(OC)c1 (stereo not drawn) | 3.15%
